Measurements taken from the BET-seq Pho4 binding data (Le et al. 2018).
This is one part of the list. The energies were worked out here from pooled read counts, against the library average; single values are noisy.

Each sequence was assayed against T1, Pho4 (S. cerevisiae) (UniProt P07270) (assay: relative binding free energy (BET-seq); higher = weaker binding). Settings: reference: library average.
T1 sequence: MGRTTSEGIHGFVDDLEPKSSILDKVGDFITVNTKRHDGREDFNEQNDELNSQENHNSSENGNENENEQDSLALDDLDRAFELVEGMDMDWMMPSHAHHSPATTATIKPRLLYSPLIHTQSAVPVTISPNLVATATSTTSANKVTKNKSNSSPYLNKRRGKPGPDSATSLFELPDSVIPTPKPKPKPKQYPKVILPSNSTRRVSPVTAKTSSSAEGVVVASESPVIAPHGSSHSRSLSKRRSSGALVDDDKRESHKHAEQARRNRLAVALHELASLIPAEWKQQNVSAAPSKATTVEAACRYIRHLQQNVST

Relative binding free energy, -0.14 kcal/mol:
TGGACCACGTGGGGAA
AATGGCACGTGTCAGT
AAGGGCACGTGGGATG
GTAAACACGTGGGTGA
TTAACCACGTGTGGTT
TTCAGCACGTGTTGGT
TTGCACACGTGGTGTG

Relative binding free energy, 0.1 kcal/mol:
GATGACACGTGTGAGT
GGTGTCACGTGTCAAG
GTGTACACGTGTTTCG

Relative binding free energy, 0.13 kcal/mol:
CTTTGCACGTGTATCT
GGTCACACGTGAGTGG
TGTATCACGTGTACTG
AATGTCACGTGTGGTG
AGTTACACGTGGCGCG

Relative binding free energy, 0.16 kcal/mol:
AGTATCACGTGATTAG
TAGGTCACGTGTGCAT
GCGCTCACGTGTGGTG
ATGAGCACGTGAGGAA

Relative binding free energy, 0.07 kcal/mol:
TATAACACGTGCTGGG
GTTGGCACGTGAAGTA
CTGTGCACGTGTTTTG
TGGCGCACGTGTGAAG
GAATGCACGTGATGGG
TTTGTCACGTGCCTGA

Relative binding free energy, -0.01 kcal/mol:
AGTAACACGTGTAGTT
TGGTGCACGTGGTTTG
CTAGTCACGTGGTTGG
TCGGGCACGTGCGAGT
AGTGTCACGTGGAAAG

Relative binding free energy, 0.05 kcal/mol:
TGGTTCACGTGGCAGT
AGTTCCACGTGTTTGG
CGAGTCACGTGGTCTG
TGCGGCACGTGTATCG

Relative binding free energy, -0.36 kcal/mol:
CGAGGCACGTGGGCGG

Relative binding free energy, 0.2 kcal/mol:
TTATTCACGTGGATGA
GAGGTCACGTGGAAAG
ATAGTCACGTGTTGTT

Relative binding free energy, 0.08 kcal/mol:
TGACGCACGTGTGGAG
CGTTACACGTGGTGAT
TTGGCCACGTGAGTGT
TCTGCCACGTGTAGGG
TCTTACACGTGTAGGG

Relative binding free energy, 0.34 kcal/mol:
GGAATCACGTGATGGT
AAGTTCACGTGTAGTG
GGGTTCACGTGTTACA

Relative binding free energy, 0.09 kcal/mol:
ATATACACGTGTAGGG
TGGTACACGTGGTAAA
CTGGACACGTGCTGGT
GGCGGCACGTGGATAT
TGCATCACGTGGTGAA

Relative binding free energy, 0.38 kcal/mol:
TTTTTCACGTGTAAGT
GAATTCACGTGCAGGT

Relative binding free energy, -0.24 kcal/mol:
GTGGGCACGTGGGGCC

Relative binding free energy, 0.18 kcal/mol:
TGGGGCACGTGAGCAA
AGGTGCACGTGATTGA
AGAGTCACGTGAAGAG

Relative binding free energy, 0.43 kcal/mol:
TTGGTCACGTGATTTC

Relative binding free energy, -0.07 kcal/mol:
TCGGGCACGTGTAGAG
GTTGGCACGTGGAGAT
TCTGGCACGTGGATGG

Relative binding free energy, 0.39 kcal/mol:
TCTTTCACGTGGAATA
GATTTCACGTGATTGA

Relative binding free energy, 0.3 kcal/mol:
GAGTTCACGTGTTTGC
TTTTTCACGTGGATAG
GTAGACACGTGAGTTA

Relative binding free energy, -0.03 kcal/mol:
ATAGTCACGTGGTTCA
GTCGGCACGTGGAATG
CTATGCACGTGTTTAT
CTATGCACGTGTGGGC
TAGACCACGTGGTAGG
CTGGCCACGTGTTGTG

Relative binding free energy, -0.05 kcal/mol:
TTGAGCACGTGTTTAG
TTATACACGTGTTGTG
AGGGGCACGTGTGAGG
GGGGACACGTGCGGAG

Relative binding free energy, -0.31 kcal/mol:
GTGGCCACGTGGCAGG

Relative binding free energy, 0 kcal/mol:
GTGGTCACGTGGATAG
GATAGCACGTGGAGTG
TTGGTCACGTGGCTTA
AATGACACGTGGGGAA
ATTTGCACGTGACGTT
GGTGTCACGTGGGGGG
CGGGACACGTGGTATT
CGGCGCACGTGTGTTT

Relative binding free energy, -0.04 kcal/mol:
GGGTGCACGTGGCGTC
GTGGACACGTGGTCGC
TTGGTCACGTGCGGCT
TGTGGCACGTGTTTCT
TGTAACACGTGTTTGG

Relative binding free energy, 0.01 kcal/mol:
TGCATCACGTGCTGTT
GGTCGCACGTGTTTTG
TGGCTCACGTGCCGGG
TTTTGCACGTGTGCGT
TAAGGCACGTGAGTGA
TTATGCACGTGCGGTC
TAGTGCACGTGTAGTA

Relative binding free energy, 0.54 kcal/mol:
GGGTTCACGTGGAATT

Relative binding free energy, -0.08 kcal/mol:
CTTTGCACGTGTGGCT
GTTATCACGTGCGCGG

Relative binding free energy, -0.09 kcal/mol:
TATTGCACGTGGGGGC
TATTGCACGTGGAATG
CTGGGCACGTGCGGCT
GGAGGCACGTGCAAGG
ACAGTCACGTGGGGTG
GGGGCCACGTGGGGGC

Relative binding free energy, -0.1 kcal/mol:
TTGTGCACGTGGGGCT
AGGGTCACGTGGGCAT
CTGGTCACGTGCGCGG

Relative binding free energy, -0.22 kcal/mol:
AGGCGCACGTGTTTGA
ATAGGCACGTGGGGAT
CGGGGCACGTGGGGGA

Relative binding free energy, 0.06 kcal/mol:
GACTGCACGTGTTTGT
TCATACACGTGGGTGG
AGTAGCACGTGATATG
ATTGCCACGTGAGGAG
ATCTGCACGTGGGTTC
TCTGGCACGTGTTGGA
GAAAACACGTGGTGTA
GGGCACACGTGTGGAT
TTAGCCACGTGATTGT

Relative binding free energy, 0.03 kcal/mol:
CTTGTCACGTGTGGCG
ATGGGCACGTGGAACT
ATGTGCACGTGTATCG
GGGACCACGTGGAGAG

Relative binding free energy, 0.24 kcal/mol:
AGGATCACGTGCTTGA
GTATTCACGTGGCTTT
ACGTTCACGTGTGTCG

Relative binding free energy, -0.16 kcal/mol:
TAAGGCACGTGGCGAG
TGGGGCACGTGCGTTG

Relative binding free energy, 0.37 kcal/mol:
GTTTTCACGTGGAATG

Relative binding free energy, -0.12 kcal/mol:
TGTTGCACGTGCTCGT
AGGAGCACGTGCATGT
GGTCCCACGTGCGGGG

Relative binding free energy, 0.22 kcal/mol:
TATGGCACGTGAGCGC
ACATTCACGTGTTAGG
AGGTACACGTGACGGG
TGATTCACGTGTATGT
GTTGTCACGTGTTAAC

Relative binding free energy, 0.32 kcal/mol:
GTATTCACGTGAGTTC
TTTTCCACGTGAGCGG
TGGGTCACGTGAGCTT
GAGTGCACGTGATTCT

Relative binding free energy, 0.02 kcal/mol:
AGGTGCACGTGTTAGG
TGATACACGTGGATGA
TGATGCACGTGTGTTG
GTAGCCACGTGAGTGT
CATGTCACGTGGTTGA

Relative binding free energy, 0.31 kcal/mol:
TGAATCACGTGAGTTT
GCATTCACGTGGTGGA
AAGTTCACGTGTTGTG

Relative binding free energy, -0.27 kcal/mol:
AATGGCACGTGCTTTG
AGGGGCACGTGGTCGA

Relative binding free energy, 0.35 kcal/mol:
ACTTTCACGTGAGTGG

Relative binding free energy, 0.48 kcal/mol:
ATTTTCACGTGAGAGC

Relative binding free energy, 0.17 kcal/mol:
GGATACACGTGTGATG
CTTAGCACGTGATGAG

Relative binding free energy, 0.04 kcal/mol:
TAGGCCACGTGGTTAA
GATGGCACGTGACTGT
GTAATCACGTGGTATG
GGTTGCACGTGTACTG

Relative binding free energy, 0.26 kcal/mol:
TTTTACACGTGTGGAT
AGGATCACGTGGCGAA
TGGCTCACGTGTTTCT

Relative binding free energy, 0.19 kcal/mol:
TCGTGCACGTGAGTTT
GTGATCACGTGTTTAG
GGGGTCACGTGCGGGT

Relative binding free energy, -0.06 kcal/mol:
ATCGGCACGTGGCGGA
TGGGCCACGTGTATGG

Relative binding free energy, -0.28 kcal/mol:
CTAGGCACGTGGAGGG

Relative binding free energy, 0.23 kcal/mol:
CGGTTCACGTGTATGG

Relative binding free energy, 0.27 kcal/mol:
TGAATCACGTGATTTG
CGTTTCACGTGGTCAT
GGATTCACGTGGTGTT
TGGCTCACGTGGTTTC
TGGTTCACGTGGATGT

Relative binding free energy, -0.19 kcal/mol:
TCACGCACGTGGGGGG
TAGTGCACGTGCTTAT
ATGTGCACGTGGTGAT
TATAGCACGTGGGTTG

Relative binding free energy, -0.17 kcal/mol:
GTCAGCACGTGGCGGT
AGTAACACGTGGGAGT

Relative binding free energy, -0.02 kcal/mol:
GTTAGCACGTGACGGG
TGTAGCACGTGGTTCC
GGGAGCACGTGTTTTG
GGGGCCACGTGGTTCT
CGAGACACGTGGTGTG

Relative binding free energy, 0.29 kcal/mol:
TAATTCACGTGGCGTT
GTATTCACGTGGAGGG
TTATTCACGTGAACTT

Relative binding free energy, 0.25 kcal/mol:
TGTAACACGTGAAATG
TGTTCCACGTGTAAAG
GGTCTCACGTGGGTTT

Relative binding free energy, -0.2 kcal/mol:
GGGGGCACGTGCTAAG

Relative binding free energy, -0.13 kcal/mol:
AGAGGCACGTGCGTTT
ATTCCCACGTGGGGTT
GTAGGCACGTGGGTGA
TGCGGCACGTGCTGGC
GCGGGCACGTGGCAGT

Relative binding free energy, -0.35 kcal/mol:
GGTGGCACGTGGGTAC

Relative binding free energy, 0.4 kcal/mol:
CGTATCACGTGAGGAG
TGATTCACGTGTTTTT

Relative binding free energy, 0.28 kcal/mol:
AAGTTCACGTGTGATT
GGGGACACGTGAGGAG
GTTTACACGTGTTAAC
GGGCTCACGTGTGGAG

Relative binding free energy, -0.15 kcal/mol:
AGGCGCACGTGATGTG
TGAGGCACGTGCGTTT
GTGCGCACGTGTTATG
CCGGTCACGTGGTGTG

Relative binding free energy, 0.33 kcal/mol:
GAAGTCACGTGAATGT
CTGTTCACGTGGTTTG
TCGTTCACGTGGGTTT
TACTTCACGTGTGGTT
TAGTTCACGTGGTTGG

Relative binding free energy, 0.11 kcal/mol:
CGATGCACGTGACGGG
CTAATCACGTGTTGGT
TTGATCACGTGTATAA

Relative binding free energy, -0.18 kcal/mol:
TTTGGCACGTGGGTGC

Relative binding free energy, 0.12 kcal/mol:
AATGTCACGTGTATTG
TGTTACACGTGTTTTG
AAAGTCACGTGGTTAA
GGAGTCACGTGTAGGG

Relative binding free energy, -0.11 kcal/mol:
TAGTGCACGTGGGCAT
AGCTGCACGTGGCGGT
AGCTGCACGTGCGTGT

Relative binding free energy, 0.15 kcal/mol:
TGTGCCACGTGAGGGT

Relative binding free energy, 0.14 kcal/mol:
GAGGGCACGTGATGAT
GTGATCACGTGGTAAG
GGATACACGTGTGAGT
